Laboratory results reported in PubChem BioAssay AID180 (DTP/NCI, 2004).
Several values for one entry are separate records, joined by “and”; a condition that tells them apart may be missing. Equal values may be shown once. The source gives many values for each of these; only a part stands here.

Tested on: BDF1 mice, Adenocarcinoma 755 s.c., tumor weight T/C
Test: NCI In Vivo Anticancer Drug Screen. Data for tumor model Adenocarcinoma 755 (subcutaneous) in B6D2F1 (BDF1) mice
Settings: endpoint: mean tumor weight, higher = larger tumour
Description: The antitumor activity of compounds was measured in mice bearing transplantable tumors. Survival or tumor size were measured and the results are expressed as the measurement made in the treated group (T) divided by the measurement made in the vehicle treated control group (C). The tumor model used in this assay is Adenocarcinoma 755 (subcutaneous) in B6D2F1 (BDF1) mice

S=c1nc[nH]c2nc[nH]c12
T/C (dose: 0.01 mg/kg/injection, schedule: Q01DX011 (ip), vehicle: carboxymethylcellulose (CMC)): 51 % of control | T/C (dose: 0.05 mg/kg/injection, schedule: Q01DX011 (ip), vehicle: carboxymethylcellulose (CMC)): 77 % of control | T/C (dose: 0.13 mg/kg/injection, schedule: Q01DX011 (ip), vehicle: carboxymethylcellulose (CMC)): 61 % of control | T/C (dose: 0.2 mg/kg/injection, schedule: Q01DX007 (ip), vehicle: carboxymethylcellulose (CMC)): 63 % of control | T/C (dose: 0.2 mg/kg/injection, schedule: Q01DX011 (ip), vehicle: carboxymethylcellulose (CMC)): 71 % of control and 88 % of control | T/C (dose: 0.25 mg/kg/injection, schedule: Q01DX007 (ip), vehicle: carboxymethylcellulose (CMC)): 73 % of control | T/C (dose: 0.25 mg/kg/injection, schedule: Q01DX011 (ip), vehicle: carboxymethylcellulose (CMC)): 77 % of control | T/C (dose: 0.25 mg/kg/injection, schedule: Q01DX011 (ip), vehicle: saline): 66 % of control | T/C (dose: 0.3 mg/kg/injection, schedule: Q01DX011 (ip), vehicle: carboxymethylcellulose (CMC)): 80 % of control | T/C (dose: 0.4 mg/kg/injection, schedule: Q01DX011 (ip), vehicle: alkali diluted with saline): 67 % of control | T/C (dose: 0.4 mg/kg/injection, schedule: Q01DX011 (ip), vehicle: saline): 77 % of control | T/C (dose: 0.43 mg/kg/injection, schedule: Q01DX011 (ip), vehicle: saline): 60 % of control | T/C (dose: 0.5 mg/kg/injection, schedule: Q01DX007 (ip), vehicle: carboxymethylcellulose (CMC)): 57 % of control | T/C (dose: 0.54 mg/kg/injection, schedule: Q01DX011 (ip), vehicle: carboxymethylcellulose (CMC)): 43 % of control | T/C (dose: 0.87 mg/kg/injection, schedule: Q01DX011 (oral), vehicle: saline): 35 % of control | T/C (dose: 0.9 mg/kg/injection, schedule: Q01DX011 (ip), vehicle: carboxymethylcellulose (CMC)): 53 % of control | T/C (dose: 2.0 mg/kg/injection, schedule: Q01DX011 (ip), vehicle: carboxymethylcellulose (CMC)): 34 % of control and 52 % of control and 57 % of control | T/C (dose: 276.0 micrograms/kg/injection, schedule: Q01DX011 (ip), vehicle: carboxymethylcellulose (CMC)): 40 % of control | T/C (dose: 345.0 micrograms/kg/injection, schedule: Q01DX011 (ip), vehicle: carboxymethylcellulose (CMC)): 58 % of control | T/C (dose: 460.0 micrograms/kg/injection, schedule: Q01DX011 (ip), vehicle: carboxymethylcellulose (CMC)): 45 % of control | T/C (dose: 690.0 micrograms/kg/injection, schedule: Q01DX011 (ip), vehicle: carboxymethylcellulose (CMC)): 33 % of control
